One experiment concerns the target T1, hCD47(ECD)-Fc (human, UniProt Q08722 partial chain).
T1 construct: extracellular domain; not shown: Fc part not described
The experiment is described as follows: BLI (Fortebio Red96), Protein A probes, 30℃.

The target in a further experiment is T2, hPD-L1(ECD)-Fc (human, UniProt Q9NZQ7 partial chain).
T2 construct: extracellular domain; also called 重组人PD-L1; not shown: Fc part not described
The experiment is described as follows: BLI (Fortebio Red96), Protein A probes, 30℃. In general terms: In BLI a coated tip is dipped into the sample, and binding shifts an interference pattern.

The target of experiment [1] is T3, 人CD47 (Jurkat细胞, 高表达人CD47) (human, UniProt Q08722).
T3 construct: whole, on cells
The experiment is described as follows: flow cytometry competition against hSIRPa(ECD)-Fc-Biotin on Jurkat cells.

hCD47(ECD)-Fc, sequence (Q08722 19-139): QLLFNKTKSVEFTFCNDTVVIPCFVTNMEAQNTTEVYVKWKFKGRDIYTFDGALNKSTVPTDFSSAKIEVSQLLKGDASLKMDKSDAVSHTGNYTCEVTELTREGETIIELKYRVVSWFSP
hPD-L1(ECD)-Fc, sequence (Q9NZQ7 19-238): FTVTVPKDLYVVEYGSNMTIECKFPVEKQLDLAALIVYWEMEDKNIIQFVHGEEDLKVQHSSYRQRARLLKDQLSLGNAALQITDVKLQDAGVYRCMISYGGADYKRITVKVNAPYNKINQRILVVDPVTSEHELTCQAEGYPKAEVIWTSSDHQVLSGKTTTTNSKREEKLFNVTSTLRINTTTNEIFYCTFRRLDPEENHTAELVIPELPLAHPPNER

B1: 抗PD-L1/CD47双特异性抗体C (bispecific antibody, human IgG4 S228P)
chain: QVQLQESGGGLVQPGGSLRLSCTASGYNLSPSCMGWFRQAPGKGLEGVAFTDADGSTRYADSVKARFTISRDNSKNTLYLQMNSLRAEDTAVYYCAADFFSYCSVVFRASARDKYRGQGTLVTVSSGGGGSGGGGSGGGGSGGGGSQVQLQESGGGLVQPGGSLRLSCTASGYNLSPSCMGWFRQAPGKGLEGVAFTDADGSTRYADSVKARFTISRDNSKNTLYLQMNSLRAEDTAVYYCAADFFSYCSVVFRASARDKYRGQGTLVTVSS[sequence of human IgG4 Fc with S228P (EU numbers) not given]GGGGSGGGGSGGGGSGGGGSQVQLQESGGGLVQPGGSLRLSCAASGYAYTSDCMGWFRQTPGKGLEGVALIYTPGASTNYADSVKGRFTISQDNSKSTVYLQMNSLRAEDTAMYYCAARRGACSLRLPFFYWGQGTLVTVSSGGGGSGGGGSGGGGSGGGGSQVQLQESGGGLVQPGGSLRLSCAASGYAYTSDCMGWFRQTPGKGLEGVALIYTPGASTNYADSVKGRFTISQDNSKSTVYLQMNSLRAEDTAMYYCAARRGACSLRLPFFYWGQGTLVTVSS
notes: dimer through Fc; also called 双抗C; 候选双抗C
One may read the Kd as the constant that tells how readily two partners part at equilibrium. By IC50 is commonly meant the concentration that inhibits the measured activity by half. The low end stands for higher potency, the high end for lower potency. In the case of B1, the Kd with hCD47(ECD)-Fc is 6.15 nM; in the experiment with hPD-L1(ECD)-Fc, 26.6 nM. In addition, the IC50 in experiment [1] was 6.23 nM.

B2: 抗PD-L1/CD47双特异性抗体B (bispecific antibody, human IgG4 S228P)
chain: QVQLQESGGGLVQPGGSLRLSCAASGYAYTSDCMGWFRQTPGKGLEGVALIYTPGASTNYADSVKGRFTISQDNSKSTVYLQMNSLRAEDTAMYYCAARRGACSLRLPFFYWGQGTLVTVSS[sequence of human IgG4 Fc with S228P (EU numbers) not given]QVQLQESGGGLVQPGGSLRLSCTASGYNLSPSCMGWFRQAPGKGLEGVAFTDADGSTRYADSVKARFTISRDNSKNTLYLQMNSLRAEDTAVYYCAADFFSYCSVVFRASARDKYRGQGTLVTVSS
notes: Tetravalent form: CD47 single-domain antibody at the N-terminus, human Fc and flexible linker, PD-L1 single-domain antibody at the C-terminus; also called 双抗B; 四价抗体B
B2: in experiment [1], the IC50 is 8.3 nM.

B3: 抗PD-L1/CD47双特异性抗体A (bispecific antibody, human IgG4 S228P)
chain: QVQLQESGGGLVQPGGSLRLSCTASGYNLSPSCMGWFRQAPGKGLEGVAFTDADGSTRYADSVKARFTISRDNSKNTLYLQMNSLRAEDTAVYYCAADFFSYCSVVFRASARDKYRGQGTLVTVSS[sequence of human IgG4 Fc with S228P (EU numbers) not given]GGGGSGGGGSGGGGSGGGGSQVQLQESGGGLVQPGGSLRLSCAASGYAYTSDCMGWFRQTPGKGLEGVALIYTPGASTNYADSVKGRFTISQDNSKSTVYLQMNSLRAEDTAMYYCAARRGACSLRLPFFYWGQGTLVTVSS
notes: Tetravalent form: PD-L1 single-domain antibody at the N-terminus, human Fc and flexible linker, CD47 single-domain antibody at the C-terminus; Expressed in CHO-S, purified on Protein A; also called 双抗A; 四价抗体A
In experiment [1], B3 gave an IC50 of 10.8 nM.

B4: 抗PD-L1/CD47双特异性抗体D (bispecific antibody, human IgG4 S228P)
chain: QVQLQESGGGLVQPGGSLRLSCAASGYAYTSDCMGWFRQTPGKGLEGVALIYTPGASTNYADSVKGRFTISQDNSKSTVYLQMNSLRAEDTAMYYCAARRGACSLRLPFFYWGQGTLVTVSSGGGGSGGGGSGGGGSGGGGSQVQLQESGGGLVQPGGSLRLSCAASGYAYTSDCMGWFRQTPGKGLEGVALIYTPGASTNYADSVKGRFTISQDNSKSTVYLQMNSLRAEDTAMYYCAARRGACSLRLPFFYWGQGTLVTVSS[sequence of human IgG4 Fc with S228P (EU numbers) not given]QVQLQESGGGLVQPGGSLRLSCTASGYNLSPSCMGWFRQAPGKGLEGVAFTDADGSTRYADSVKARFTISRDNSKNTLYLQMNSLRAEDTAVYYCAADFFSYCSVVFRASARDKYRGQGTLVTVSSGGGGSGGGGSGGGGSGGGGSQVQLQESGGGLVQPGGSLRLSCTASGYNLSPSCMGWFRQAPGKGLEGVAFTDADGSTRYADSVKARFTISRDNSKNTLYLQMNSLRAEDTAVYYCAADFFSYCSVVFRASARDKYRGQGTLVTVSS
notes: dimer through Fc; also called 双抗D
On to B4, for which the IC50 in experiment [1] was found to be 4.91 nM.

The values above are taken from patent publication CN112745392A (SHANGHAI NOVAMAB BIOPHARMACEUTICALS CO LTD, dated 2021).
